This is one part of the list. The full chains were built here from the parent and the listed change. Inactive controls read about 0.05.
B1: TEV protease; numbered along this chain (parent)
chain: MGESLFKGPRDYNPISSSICHLTNESDGHTTSLYGIGFGPFIITNKHLFRRNNGTLVVQSLHGVFKVKDTTTLQQHLVDGRDMIIIRMPKDFPPFPQKLKFREPQREERICLVTTNFQTKSMSSMVSDTSCTFPSGDGIFWKHWIQTKDGQCGSPLVSTRDGFIVGIHSASNFTNTNNYFTSVPKNFMELLTNQEAQQWVSGWRLNADSVLWGGHKVFMVKPEEPFQPVKEATQL

Variants of: B1
Assay: raw area under fraction-flipped curve 0-4 h after induction (AUC4h, not background-subtracted), DNA-recorder readout of cleavage of the substrate (dimensionless); higher = more cleavage of the substrate by the protease variant
Conditions: temperature: 34 °C; time window: 0-4 h after rhamnose induction
Description: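 In vivo DNA recorder in E. coli TOP10(DE3) ΔrhaA at 34 °C. Each TEVp single-site mutant (parent TEVp 0) is paired with a single-site variant of the 7-mer TEVs (canonical ENLYFQ|S). The substrate sits between flexible linkers in a Bxb1-sfGFP-TEVs-SsrA fusion, so cleavage stabilises Bxb1 and speeds flipping of a recombination array, read by NGS. The value is the raw area under the fraction-flipped curve over 0-4 h after rhamnose induction (AUC4h), with ≥20 reads per time point. It is not background-subtracted; inactive controls average about 0.047.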
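Further: Bxb1 expression induced with 0.2% (w/v) L-rhamnose at OD600 near 0.5, cultures sampled hourly, flipped fraction per protease–substrate barcode pair counted by paired-end Illumina sequencing.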

| Variant | area with substrate ENLYFAS | area with substrate ENLYFCS | area with substrate ENLYFDS | area with substrate ENLYFES | area with substrate ENLYFFS | area with substrate ENLYFGS | area with substrate ENLYFHS | area with substrate ENLYFIS | area with substrate ENLYFKS | area with substrate ENLYFLS | area with substrate ENLYFMS | area with substrate ENLYFNS | area with substrate ENLYFPS | area with substrate ENLYFRS | area with substrate ENLYFSS | area with substrate ENLYFTS | area with substrate ENLYFVS | area with substrate ENLYFWS | area with substrate ENLYFYS |
| --- | --- | --- | --- | --- | --- | --- | --- | --- | --- | --- | --- | --- | --- | --- | --- | --- | --- | --- | --- |
| C152I | 0.0459 | 0.0626 | 0.0633 | 0.0275 | 0.0766 | 0.0469 | 0.054 | 0.0525 | 0.0682 | 0.0624 | 0.0605 | 0.0437 | 0.0576 | 0.053 | 0.0629 | 0.0585 | 0.0482 | 0.0401 | 0.0641 |
| C152E | 0.0503 | 0.0388 | 0 | 0.064 | 0.0767 | – | 0.0549 | 0.0582 | – | 0.0597 | 0.0585 | 0.0647 | 0.0575 | 0.0717 | 0.0694 | 0.0563 | 0.0594 | 0.0528 | 0.0517 |
| C152L | 0.0256 | 0.0514 | – | 0.0523 | – | – | 0.0553 | – | 0.0585 | – | 0.0556 | – | 0.0546 | 0.0586 | – | 0.0634 | 0.0517 | 0.0627 | – |
| C152A | 0.0396 | 0.0632 | 0.0577 | 0.0499 | 0.0702 | – | – | 0.0576 | 0.051 | 0.0672 | 0.0561 | 0.0613 | 0.0582 | 0.0534 | – | – | 0.0608 | 0.0534 | – |
| C152G | 0.0586 | 0.0543 | 0.0598 | 0.0615 | 0.0719 | – | 0.0628 | 0.0573 | 0.075 | 0.0571 | 0.0599 | 0.0638 | 0.0663 | 0.0563 | – | 0.0598 | – | 0.0512 | 0.0649 |
| C152W | 0.0602 | 0.0606 | 0.0565 | 0.0656 | 0.0832 | 0.0671 | 0.0696 | 0.0544 | 0.05 | 0.0311 | 0.0513 | 0.0663 | 0.0596 | 0.0702 | – | 0.0516 | 0.0554 | 0.0535 | 0.0596 |
| W144M | 0.0774 | 0.0667 | 0.071 | 0.0751 | 0.0726 | – | – | 0.064 | 0.0956 | 0.0563 | – | 0.061 | 0.0294 | 0.0738 | – | – | 0.0632 | – | 0.0662 |
| W144H | 0.061 | 0.0515 | – | 0.0751 | 0.0548 | 0.0769 | – | 0.0686 | 0.0581 | 0.0585 | 0.0659 | 0.0628 | 0.0386 | 0.0586 | 0.0585 | 0.0629 | – | 0.0573 | – |
| W144Y | 0.0622 | 0.0669 | 0.0606 | 0.0611 | 0.0712 | – | 0.0654 | 0.0627 | 0.0606 | 0.05 | 0.056 | 0.0794 | 0.07 | 0.0543 | 0.0563 | 0.0602 | 0.0634 | 0.0602 | 0.0523 |
| W144C | 0.0726 | – | 0.0548 | 0.0443 | 0.0735 | 0.0706 | 0.0556 | 0.0574 | 0.0696 | – | 0.0569 | 0.0832 | 0.0622 | 0.0597 | – | 0.0718 | – | – | – |
| W144N | 0.0545 | 0.0708 | 0.0538 | 0.0603 | 0.0602 | 0.0589 | 0.0557 | 0.0527 | 0.0561 | 0.0663 | 0.0619 | 0.0793 | 0.0822 | 0.0715 | – | – | 0.07 | 0.0585 | – |
| W144V | 0.0576 | – | – | 0.034 | 0.0714 | 0.0404 | 0.0607 | 0.0595 | 0.0712 | 0.0596 | 0.0664 | 0.0635 | 0.0587 | 0.0793 | 0.0876 | 0.057 | 0.0589 | 0.0464 | – |
| G136R | 0.0582 | 0.0607 | – | 0.0759 | – | 0.0513 | 0.0628 | 0.0503 | 0.0579 | – | 0.0735 | 0.0531 | 0.0597 | 0.069 | 0.0586 | – | 0.0602 | 0.0676 | 0.0586 |
| G136T | 0.0441 | 0.0569 | 0.0402 | 0.0661 | 0.069 | – | 0.0611 | 0.0584 | 0.0794 | 0.0565 | 0.0723 | 0.0645 | 0.0533 | 0.0711 | 0.0591 | 0.0575 | 0.0414 | 0.0605 | 0.0132 |
| G136W | 0.0679 | – | 0.0171 | 0.0659 | 0.071 | 0.0586 | – | 0.0562 | 0.0537 | 0.0264 | 0.0662 | 0.0575 | 0.0509 | – | – | – | 0.0609 | 0.0641 | 0.0534 |
| G136L | 0.054 | 0.0639 | – | 0.054 | 0.07 | 0.0547 | – | 0.0532 | 0.0637 | 0.0669 | 0.0542 | – | 0.0637 | 0.0781 | 0.0459 | 0.0612 | 0.055 | 0.0553 | – |
| G136H | 0.055 | – | – | 0.0593 | 0.0746 | 0.0759 | – | 0.0513 | – | 0.0599 | 0.0784 | 0.0783 | – | 0.03 | 0.0614 | 0.0618 | – | 0.0647 | 0.0604 |
| G136Q | 0.0537 | 0.0685 | 0.0613 | 0.0472 | 0.0666 | – | 0.0681 | 0.0606 | 0.0711 | – | 0.0513 | 0.0807 | 0.0614 | 0.058 | 0.0555 | 0.049 | 0.0746 | 0.0615 | 0.0556 |
| P134H | 0.0633 | 0.0576 | – | 0.0533 | 0.0758 | 0.0582 | 0.0614 | 0.0574 | 0.0633 | 0.0408 | 0.0492 | 0.0491 | 0.0645 | 0.0544 | – | 0.0693 | 0.0626 | 0.0612 | 0.0618 |
| R160I | 0.0711 | 0.0616 | 0.0586 | 0.0633 | 0.0696 | 0.0688 | 0.0613 | 0.0534 | – | 0.0708 | 0.0611 | 0.0618 | 0.0589 | 0.0683 | – | 0.0658 | 0.0461 | 0.0569 | 0.0602 |
| R160Y | 0.0638 | 0.054 | – | 0.06 | 0.0706 | 0.0546 | 0.074 | 0.0595 | – | 0.0377 | 0.0683 | 0.074 | 0.0688 | 0.0571 | 0.0571 | – | – | 0.0583 | – |
| R160D | 0.0645 | 0.0657 | – | 0.042 | 0.0779 | 0.0742 | 0.0633 | 0.0637 | 0.0559 | – | 0.0749 | 0.0663 | – | 0.0561 | – | 0.0532 | 0.0309 | 0.0571 | 0.0487 |

From the supplement of paper PMC12217912
